Experimental data: the RNAGym collection of RNA variant scans (doi:10.1101/gad.245936.114)
Variants at the floor of the assay are shown more often than the library holds them.

B1: tRNA (parent)
chain: CUCUCGGUAGCCAAGUUGGUUUAAGGCGCAAGACUUUAAUUUAUCACUACGAAAUCUUGAGAUCGGGCGUUCGACUCGCCCCCGGGAGAUUUUUUCCUCGAGCAA

Variants of: B1
Assay: nonsense suppression (GFP-seq) (ratio to wild type); higher = more function; SUP4oc tRNA, yeast GFP reporter sort-seq
Procedure, shortened: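 Yeast were grown in raffinose/galactose medium with 80 mg/L adenine, each strain bearing a genome-integrated ochre-suppressor tRNA variant from a ~3% random-mutation library, a galactose-driven GFP ochre reporter, and RFP. After sorting into GFP/RFP bins, every bin was sequenced on an Illumina platform at phred ≥30. The GFPSEQ value, a measure of nonsense suppression, is the weighted bin median GFP/RFP relative to the unmutated parent tRNA, using each variant's estimated cell share per bin as the weight. Only variants with ≥100 reads and ≥30 cells were included.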

Nonsense suppression, ≤ 0.026:
C1A C68U
C1A C80A C83A
C1A C81G
C1A C82U G86A
C1A C83A
C1A G6A U16A U20G A23C G59A G73C
C1A G6C G7A
C1A G7A
C1A G7A C72G C80G
C1A G7U C12A C29A
C1A G10A C27U
C1A G10A G78C
C1A G10C G15U U57C C75G
C1A G10U G61A A62C G73C
C1A G15A G19A A30U U63G U76C
C1A G15A G26U A54G U57C
C1A G15C C68U C81A
C1A G15C U21G C34U C81A
C1A G15U A54C
C1A G18A G65A C68G
C1A G18C
C1A G19A U21G A24U
C1A G19U A23G
C1A G19U G26A G32C A54U C56A C82G
C1A G19U U55A
C1A G25A G32A
C1A G28C G66U C80U
C1A G32C C83U
C1A G59U U63C
C1A G61C
C1A G61U G86U
C1A G67A G84U
C1A G67C
C1A G67U G85C
C1A G69C
C1A G73C U76A
C1A G85A
C1A G86A
C1A G86C
C1A G88A
C1A G88U
C1A U2A G32U U35A C68G
C1A U2A U35C U70A
C1A U2C G19C G69U G78A C80A A87G
C1A U2G A31U
C1A U2G C3A
C1A U4A A13U C29U A87U
C1A U4G C27U
C1A U4G G25C
C1A U8A C12G U55G
C1A U8A G28A A89C
C1A U8C C64U A87C
C1A U8G C12U A14C G85U
C1A U8G C68G
C1A U16A
C1A U16A G88C
C1A U16C U70A
C1A U16G
C1A U16G G28U
C1A U17A
C1A U17A C27U A87U
C1A U17C
C1A U17C G25U A33U
C1A U17C U20A G59A G69C C79G
C1A U17G C27G U58C G61C U76C
C1A U17G G88A
C1A U20G A62U U71G
C1A U21C A87U
C1A U21G G26A
C1A U22G G25U
C1A U35G A60C G69A U70A
C1A U35G G61U G69C C83U
C1A U55A C77A C82U
C1A U55A U76C
C1A U55C C72U A74G
C1A U57A
C1A U57C
C1A U63C U71A
C1G A9C A14G C29U U58A
C1G A9C G18U U71G
C1G A9C G59C
C1G A9C G67A U71A
C1G A9G A33G C77A G78C
C1G A9G C11A U21A A30C
C1G A9G C68G A89C
C1G A9G G18U U22C U63A
C1G A9G U20C G59C U76C
C1G A9U
C1G A9U A13C U17C C29A G32U U70A
C1G A13G C68U
C1G A13G G61C U76C
C1G A13G U57A
C1G A14G
C1G A14G G66A A74G A89U
C1G A23C U55G U58A C75U
C1G A23G C27A
C1G A23G U63A U70C G73A
C1G A23U U71C U76G
C1G A24C G26U
C1G A24C G61C G86U
C1G A24U G28A A74C C81A A89G
C1G A30C
C1G A30G G66U
C1G A30U A31G
C1G A31C A33G G78A G85A
C1G A31G
C1G A31U G88A
C1G A33G
C1G A33G U55C U71G G78C
C1G A33G U76G
C1G A33U G67A
C1G A54C A60G
C1G A54U C56A C72U
C1G A54U G66C G84C
C1G A60C
C1G A60C G66C
C1G A74U
C1G C3G C34U
C1G C3U
C1G C3U A62G
C1G C3U G10A
C1G C5A C29A G84U
C1G C5G A14G A30G U58G
C1G C5G A30G
C1G C5G U76C
C1G C5U G7U G18U
C1G C5U G61A U76G
C1G C5U U57A
C1G C11A A24G
C1G C11A C72U
C1G C11A U16G G59A A60C
C1G C11G U70C C75A
C1G C11G U76A
C1G C12A A24U
C1G C12A G69U G78U
C1G C12U A89G
C1G C12U G25C U63A
C1G C27A G61A
C1G C27A U55G
C1G C27G G73U
C1G C27U
C1G C29A C79U
C1G C34A C64A C68G
C1G C34A G65A
C1G C56A G66C G84U
C1G C56G A74U
C1G C64U U71A
C1G C64U U71C
C1G C68G
C1G C68U A74U
C1G C72A
C1G C72A C82G
C1G C79G
C1G C81G A87G
C1G C82U A87C
C1G G6C G69A
C1G G6C U8C U57G G67A G88C
C1G G6C U63C
C1G G6U A74G
C1G G6U G66U
C1G G6U G66U G73U
C1G G7A G15A A89G
C1G G7A G28A
C1G G7C A30U
C1G G7C U22C G67C A87G
C1G G7U
C1G G7U A33U G67C
